# Assay results as given in PubChem BioAssay AID588453 (National Center for Advancing Translational Sciences (NCATS), 2011).
# Among all 390,000 compounds or so, about 4,000 (1%) were called active. Inconclusive means that the source gave no clear call. Such entries were picked first, then a sample of the others. Calls come from the whole dose curve; as a rule, active = well fitted inhibition curve with a large enough effect; inconclusive = small, poorly fitted or top-dose-only effect; inactive = no such curve, though single readings can be large or run the other way. Potencies of inconclusive entries are doubtful fits and often do not repeat.
# Molecular target: Thioredoxin reductase 1, cytoplasmic (Rattus norvegicus) (UniProt O89049)
# Assay: qHTS Assay for Inhibitors of Mammalian Selenoprotein Thioredoxin Reductase 1 (TrxR1): qHTS; note: nearly all actives have a fitted effect of over 65% in size
# Settings: recombinant rTrxR1, NADPH fluorescence consumption, selenite substrate; series mostly up to 114 µM; activity change, negative = inhibition: at the top concentration
# Method in brief: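 Rat TrxR1 (90 nM in the dispensed reagent) was pre-reduced with 400 uM NADPH for 5 min at room temperature, then incubated with compound for 15 min. After 400 uM selenite was added, NADPH fluorescence (Ex 340/Em 450 nm) was followed for 8 min.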
# % is set by controls: 0 for no effect and ±100 for the full control effect; potency is the fitted concentration of half-maximal effect; tags give direction and shape of the fitted curve.
# Chain of UniProt O89049 (O89049 whole entry, looked up): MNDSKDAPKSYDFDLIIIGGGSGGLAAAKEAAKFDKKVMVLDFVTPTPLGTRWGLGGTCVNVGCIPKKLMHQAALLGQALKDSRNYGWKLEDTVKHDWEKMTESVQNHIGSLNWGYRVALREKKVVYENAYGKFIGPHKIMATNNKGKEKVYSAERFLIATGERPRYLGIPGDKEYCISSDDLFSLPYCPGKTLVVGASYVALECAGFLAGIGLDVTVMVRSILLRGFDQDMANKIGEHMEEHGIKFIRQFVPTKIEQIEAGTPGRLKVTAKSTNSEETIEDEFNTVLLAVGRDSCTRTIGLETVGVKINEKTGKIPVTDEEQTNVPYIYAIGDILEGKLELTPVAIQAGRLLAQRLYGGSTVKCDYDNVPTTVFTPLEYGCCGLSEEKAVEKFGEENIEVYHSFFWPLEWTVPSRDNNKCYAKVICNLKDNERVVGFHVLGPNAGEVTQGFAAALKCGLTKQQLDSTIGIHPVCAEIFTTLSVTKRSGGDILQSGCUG
SMILES,Potency,"activity change, negative = inhibition"
COC(=O)c1ccc(Cn2cnc3c(sc4nc(N5CCOCC5)c5c(c43)CCCC5)c2=O)o1,"inconclusive: 70.8 µM [inhibitor, single point]",–
COc1ccc(SC[C@H](CC(C)C)N2CCN(C)CCC2=O)cc1,"inconclusive: 79.4 µM [inhibitor, partial curve, poor fit]",–
COc1ccc(N2C(=O)[C@@H]3C(c4cccnc4)=NO[C@@H]3C2=O)cc1,"inconclusive: 50.1 µM [inhibitor, partial curve, poor fit]",–
Cc1cc(C)cc(NC(=O)c2cc(S(=O)(=O)NCc3ccco3)ccc2F)c1,"inconclusive: 15.8 µM [inhibitor, full curve]",–
Cc1cccc(-n2c(-c3ccccc3)cn3c4c(=O)[nH]c(=O)n(C)c4nc23)c1,–,inactive: 29.1%
COc1cc(C2C(C#N)=C(N)Oc3n[nH]c(C)c32)cc2c1OCO2 (stereo unspecified),"inconclusive: 79.4 µM [inhibitor, single point]",–
CCOc1ccc(C(=O)Nc2c(C(=O)Nc3ccccc3F)oc3ccccc23)cc1OCC,–,inactive: 1.69%
CN1C(=O)CC2(C=CC(=O)C=C2OC(=O)c2ccccc2)c2ccccc21 (stereo unspecified),"inconclusive: 22.4 µM [inhibitor, single point]",–
COc1ccc(S(=O)(=O)n2nc(OC(C)=O)cc2N(C(C)=O)C(C)=O)cc1,"inconclusive: 22.4 µM [inhibitor, single point]",–
CC1CCc2c(sc3[nH]c(=S)n(C)c(=O)c23)C1 (stereo unspecified),–,inactive: -17%
CCOc1ccccc1-n1cnc2cc(C(=O)NCc3ccco3)ccc21,"inconclusive: 20 µM [inhibitor, partial curve, poor fit]",–
O=[N+]([O-])c1cc(CN2CCCC2)c2cccnc2c1O,"inconclusive: 79.4 µM [inhibitor, partial curve]",–
O=C(c1ccc(F)cc1)N1c2nc(-c3ccco3)nn2C2(CCCCC2)[C@@H]2CCCC[C@@H]21,"inconclusive: 31.6 µM [inhibitor, partial curve, poor fit]",–
O=C(Nc1cccc(-c2nc3ccccc3o2)c1)c1ccc(-c2ccc(Br)cc2)o1,–,inactive: 10.5%
COc1ccccc1N1CCN(CC(O)COc2ccc3c(c2)OCO3)CC1 (stereo unspecified),"inconclusive: 79.4 µM [inhibitor, partial curve, poor fit]",–
Cn1cccc1C(=O)OCc1cc(-c2ccco2)on1,"inconclusive: 79.4 µM [inhibitor, partial curve, poor fit]",–
CC1(C)CC(=O)C(CC2=C(O)CC(C)(C)CC2=O)=C(O)C1,"inconclusive: 15.8 µM [inhibitor, partial curve, poor fit]",–
Oc1ccc(/C=N/NC(=S)Nc2cccnc2)c(O)c1,–,inactive: -29.9%
O=C(/C=C/c1ccco1)NCC1(c2ccccc2)CCCC1,"inconclusive: 15.8 µM [inhibitor, partial curve, poor fit]",–
Cc1ccc(C)n1Cc1ccc(C(=O)O)cc1,"inconclusive: 56.2 µM [inhibitor, single point]",–
CCN1C(=O)[C@H]2[C@@H](c3ccc(-c4ccc(F)cc4)cc3)N[C@@](C)(C(=O)OC)[C@H]2C1=O,"inconclusive: 7.08 µM [inhibitor, partial curve]",–
Cc1ccc(OCC(=O)N/N=C/C=C/c2ccco2)c(Br)c1,"inconclusive: 56.2 µM [inhibitor, partial curve, poor fit]",–

SMILES,Potency,"activity change, negative = inhibition"
COc1ccc(Cl)cc1NC(=O)CCS(=O)(=O)c1nc(-c2cccs2)cc(C(F)(F)F)n1,"inconclusive: 12.6 µM [inhibitor, full curve, poor fit]",–
C=CCn1c(-c2sccc2C)n[nH]c1=S,"inconclusive: 39.8 µM [inhibitor, partial curve]",–
CCCCc1cc(=O)oc2cc(O)ccc12,"inconclusive: 39.8 µM [inhibitor, single point]",–
Cc1nc2ccccn2c1C(=O)NNC(=S)Nc1ccccc1,"inconclusive: 56.2 µM [inhibitor, partial curve, poor fit]",–
O=C(CNCC1CCCO1)N1CCCc2ccccc21 (stereo unspecified),"inconclusive: 12.6 µM [inhibitor, partial curve, poor fit]",–
CCNc1nc2nc3ccc(C)cn3c(=O)c2cc1C(=O)NCC1CCCO1 (stereo unspecified),"inconclusive: 63.1 µM [inhibitor, single point]",–
O=C(NC(=S)Nc1cccc2cc(O)ccc12)c1ccccc1Br,active: 50.1 µM,–
COc1cc2sc(-c3ccc(S(C)(=O)=O)cc3)c(C(=O)NCc3ccc(C)o3)c2cc1OC,"inconclusive: 56.2 µM [inhibitor, partial curve]",–
NC1=NC(=O)CC(C(=O)NCc2ccccc2)S1 (stereo unspecified),"inconclusive: 79.4 µM [inhibitor, single point]",–
CC(=O)NC1C(=O)N(CCN2CCOCC2)c2ccc(F)cc21 (stereo unspecified),–,inactive: 0.207%
COc1ccccc1/C=C1\CCCC2=C1Nc1nnnn1C2c1ccccc1OC (stereo unspecified),"inconclusive: 6.31 µM [inhibitor, full curve, poor fit]",–
FC(F)(F)c1ccc2c(c1)NCC1CCCN21 (stereo unspecified),"inconclusive: 20 µM [inhibitor, single point]",–
CC1(C)CC(=O)C(/C=N/c2ncccc2C(=O)O)=C(O)C1,"inconclusive: 70.8 µM [inhibitor, partial curve]",–
Cc1c(Cl)cccc1-c1ccc(C(=O)Nc2ccc(F)cc2)o1,–,inactive: -17%
CCn1c(CNC(=O)c2ccc(OC)cc2)nnc1SCC(=O)c1ccccc1,"inconclusive: 56.2 µM [inhibitor, partial curve]",–
Cc1cccc(Cn2c(CNS(=O)(=O)c3ccc4c(c3)CCCC4)nc3cccnc32)c1,–,inactive: 19% [at 57.1 µM]
O=C1CS/C(=N/N=C\c2ccn[nH]2)N1,–,inactive: -2.1% [at 57.1 µM]
CCN(C(=O)C1CCN(S(=O)(=O)c2ccc3c(c2)CCCN3C(C)=O)CC1)c1cccc(C)c1,–,inactive: 15.1% [at 57.1 µM]
NC(=O)CC12CC3CC(C1)CC(CC(N)=O)(C3)C2,"inconclusive: 70.8 µM [inhibitor, single point]",–
Cc1cccc(/C=C(\c2nc3ccccc3[nH]2)S(=O)(=O)c2ccccc2)c1,–,inactive: -65.1%
COc1ccc(Cn2nnnc2CN2CCCCCC2)cc1,"inconclusive: 50.1 µM [inhibitor, partial curve]",–
Cc1ccc2[nH]c3c(=S)nc[nH]c3c2c1,"inconclusive: 39.8 µM [inhibitor, single point]",–

SMILES,Potency,"activity change, negative = inhibition"
Cc1c(-c2ccc(Br)cc2)c(=O)oc2ccc(OC(=O)N3CCOCC3)cc12,–,inactive: 8.83% [at 57.1 µM]
CCCCN(CC)S(=O)(=O)c1ccc(C(=O)N=c2sc3cc(NC(C)=O)ccc3n2C)cc1,"inconclusive: 11.2 µM [inhibitor, full curve]",–
O=C(O)CCCC(=O)Nc1cccc(-c2nc3ccccc3[nH]2)c1,"inconclusive: 89.1 µM [inhibitor, partial curve, poor fit]",–
Fc1ccccc1CNC(=S)Nc1ccc(Cl)cc1,"inconclusive: 39.8 µM [inhibitor, single point]",–
CCc1cccc(CC)c1NC(=O)CCS(=O)(=O)c1ccc(Br)cc1,–,inactive: 3.83%
CCOC(=O)N1CCN(c2cc(=O)n(-c3cccc(Br)c3)c(=O)[nH]2)CC1,"inconclusive: 70.8 µM [inhibitor, single point]",–
CC(=O)c1cccc(NC(=S)NC(=O)CC(C)C)c1,"inconclusive: 20 µM [inhibitor, partial curve, poor fit]",–
Cc1ccc(-c2cc(-c3n[nH]c(=S)n3C)c3ccccc3n2)cc1,"inconclusive: 56.2 µM [inhibitor, partial curve, poor fit]",–
Cc1cccc(-n2c(O)c(C=Nc3ccccc3-c3n[nH]c(=S)[nH]c3=O)c3ccccc3c2=O)n1,"inconclusive: 79.4 µM [inhibitor, single point]",–
Cc1nn(Cc2ccc(C(=O)Nc3ccc(C(=O)OC(C)C)cc3)o2)c(C)c1Cl,"inconclusive: 10 µM [inhibitor, partial curve]",–
COC(=O)CN(C)C1CC(=O)N(c2ccc(Cl)cc2)C1=O (stereo unspecified),active: 35.5 µM,–
CCCCCCCN(C(=O)CCl)c1ccccc1C,active: 79.4 µM,–
COc1ccc(C2=CC(c3cc(OC)c(OC)c(OC)c3)NC(=S)N2)cc1 (stereo unspecified),"inconclusive: 20 µM [inhibitor, partial curve, poor fit]",–
O=C(CSc1nc2ccccc2c(=O)n1Cc1ccco1)NCc1ccco1,"inconclusive: 10 µM [inhibitor, full curve]",–
Cn1c(NC(=O)c2ccc(F)c(F)c2)cc(=O)n(C)c1=O,"inconclusive: 3.55 µM [inhibitor, full curve, poor fit]",–
COc1cc(CNc2ccc3[nH]c(=O)[nH]c3c2)ccc1OCC(=O)NC(C)(C)C,–,inactive: -20.3%
CC(=O)c1ccc(OCc2cc(C(=O)N3CCC[C@H]3CO)no2)cc1,"inconclusive: 79.4 µM [inhibitor, partial curve]",–
CCOc1ccccc1NC(=O)c1c(NCc2ccc(C)o2)sc2c1CCCCC2,"inconclusive: 7.94 µM [inhibitor, full curve]",–
CCOC(=O)c1c(NC(=O)CCl)sc(C(=O)N(CC)CC)c1C,active: 31.6 µM,–
CCN1CCN(S(=O)(=O)c2ccc(Cl)c(C(=O)Nc3ccccc3N3CCCC3)c2)CC1,"inconclusive: 79.4 µM [inhibitor, single point]",–
C=CCn1c(NC(=O)c2ccccc2Cl)c(C#N)c2nc3ccccc3nc21,"inconclusive: 79.4 µM [inhibitor, single point]",–
CCOc1cccc(N(C(=O)C2COc3ccccc3O2)C(C(=O)NC2CCCCC2)c2ccc(O)cc2)c1 (stereo unspecified),–,inactive: -2.3%
